Assay results as given in PMC6249242, “Metabolic engineering of Escherichia coli for de novo biosynthesis of vitamin B12” (Nature Communications, 2018).

Molecular target: PduX (Salmonella enterica, UniProt Q9XDM4)
Assay: E. coli expressing pduX, HPLC of Thr-P in culture
Assay type: cell-based
Settings: M9Y medium, 5 g/l L-threonine, 28 °C

UniProt Q9XDM4, sequence (Q9XDM4 whole entry): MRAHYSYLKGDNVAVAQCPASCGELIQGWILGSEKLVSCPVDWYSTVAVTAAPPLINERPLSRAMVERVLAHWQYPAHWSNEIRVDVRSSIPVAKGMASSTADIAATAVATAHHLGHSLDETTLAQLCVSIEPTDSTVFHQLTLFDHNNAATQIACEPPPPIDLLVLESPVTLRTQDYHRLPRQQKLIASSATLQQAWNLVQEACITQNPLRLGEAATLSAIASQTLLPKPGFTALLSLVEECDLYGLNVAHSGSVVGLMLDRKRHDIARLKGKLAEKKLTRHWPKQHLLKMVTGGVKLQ

Q: C[C@@H](O)[C@H](N)C(=O)O [L-threonine] was tested. Which “E. coli expressing pduX, HPLC of Thr-P in culture” value did it give?
A: BluE/PduX strains FH296/FH298 both produced L-threonine O-3-phosphate (Thr-P) (HPLC analysis)
